Test results from the supplement of paper PMC3334620.
Over roughly 33,000 sequences, “E-score (-0.5 to 0.5)” has its median near -0.016; the highest 2% begin near 0.31. The list shows a part of the results.

Target: Cst6 (UniProt P40535)
Experiment: PBM E-score (8-mer binding enrichment) (E-score (-0.5 to 0.5)); higher = stronger / more preferred TF binding; most listed sequences are background and not binding sites
Details: protein concentration: 200 nM; construct: GST-DNA-binding domain
Method in brief: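 Using PURExpress in vitro transcription/translation, GST-tagged yeast transcription factors were made in full-length or DNA-binding-domain form. These were applied at about 100-200 nM to double-stranded universal all-10-mer Agilent arrays, and bound protein was detected with fluorescent anti-GST. Scans were normalised with masliner before the Universal PBM Analysis Suite assigned E-scores to ungapped eight-base words pooled with their reverse complements.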

Row | Sequence | PBM E-score
1 | AACCAATA | 0.195
2 | AAGTGTTG | 0.214
3 | AACGAACC | 0.208
4 | TACAGTCA | 0.139
5 | ACGAAGAC | -0.0333
6 | CGCTCTGA | -0.0554
7 | CCCCGGTC | -0.303
8 | ACCGTTCG | 0.0621
9 | CATCAGCA | 0.177
10 | CGTGGCTA | -0.0776
11 | GATCCATC | -0.0701
12 | CATTGGGA | -0.116
13 | AATCAATA | 0.206
14 | GGCTCCAC | -0.228
15 | GCGAGGAA | -0.0544
16 | TATGTTGA | 0.127
17 | CCAGGACA | -0.283
18 | GACGTCCA | 0.276
19 | GATGGTCC | -0.184
20 | ACGCAATA | 0.349
21 | GCTCGAAC | 0.00579
22 | AGTCAAGG | -0.108

Row | Sequence | PBM E-score
23 | ACACTTAC | 0.188
24 | CCCCGAGG | -0.33
25 | CGGTTAGA | -0.189
26 | AACGCCCG | -0.0175
27 | CATGAAGC | -0.187
28 | ACATTGCA | -0.0281
29 | ACGTTCTG | -0.00291
30 | ATCCGCAT | 0.112
31 | CTAGAACC | -0.127
32 | GGGCCGAA | -0.206
33 | AAACTTGT | 0.174
34 | CGATCTCA | -0.0707
35 | ATAAAGCG | 0.165
36 | AGTTCGCG | 0.0186
37 | AAGCAACA | 0.0538
38 | CAGGGTGC | -0.327
39 | CCGTCCGC | -0.184
40 | GATGAGAA | 0.0108
41 | GTACCATA | -0.00054
42 | AGAGGTTG | -0.193
43 | AAATAGAC | 0.0409
44 | CGTACGTC | 0.31

Row | Sequence | PBM E-score
45 | GTCCAAAC | -0.0363
46 | AACAGAGG | -0.0721
47 | ACTCACAC | -0.127
48 | AGGACCCG | -0.266
49 | ATTTCGTG | 0.127
50 | GAACCTTA | -0.04
51 | AGTAATGG | 0.0119
52 | ATGGTTGG | 0.0505
53 | AAAACCGT | 0.143
54 | AATCGGAA | -0.00349
55 | AGCTTCCT | -0.108
56 | GGGGAGGA | -0.23
57 | CTTCTACA | -0.0622
58 | CGCCAACA | -0.0263
59 | CTTGTAAA | 0.155
60 | GCAGGGAA | -0.101
61 | ATGTGAAA | 0.15
62 | ACCACCAA | -0.0877
63 | CTCAGTGA | 0.0623
64 | AAGTGCTC | -0.0422
65 | GCTGTAGA | -0.0867
66 | ACAATTCT | 0.168

Row | Sequence | PBM E-score
67 | ATGATCAG | 0.045
68 | GAGTATCA | -0.0698
69 | TCGCATCA | 0.267
70 | CAGTAGTA | -0.0925
71 | GGGTTCAC | -0.0513
72 | ATGCTGTA | -0.0705
73 | GAGTATCC | -0.221
74 | CATAGACC | -0.13
75 | GGGATCTA | -0.123
76 | CTAACAGC | -0.00671
77 | ATAGCCGA | 0.115
78 | TCGTCCCA | -0.0394
79 | AACGCAGT | -0.129
80 | ATTTGTAA | 0.239
81 | CAGCCCTA | 0.0115
82 | AATATATA | 0.239
83 | CGATATAC | -0.0576
84 | GGTCCCTA | -0.126
85 | ACCGGAGA | -0.155
86 | GCCCTCAA | -0.213
87 | CTGTCGTA | 0.116
88 | CTCGCCGC | 0.00702

Row | Sequence | PBM E-score
89 | CGTAGAGA | -0.026
90 | AACCCGAG | -0.153
91 | CTCTAGCC | -0.102
92 | ATCCAGGC | -0.18
93 | GGAAGCCC | -0.331
94 | CGCGTTGA | 0.143
95 | CCGAAGAC | -0.079
96 | GCATCGGC | -0.0851
97 | GGCGGAGA | -0.0758
98 | GTCTAAGA | 0.102
99 | GTAGGTTA | 0.0321
100 | AGGAGACA | -0.0509
101 | CTGGGTTC | -0.123
102 | GTAAGAGA | 0.0594
103 | ACCTTTAT | -0.0669
104 | GCGTACCC | -0.215
105 | CAATTCGC | 0.14
106 | CACTGCGA | -0.0986
107 | ACGTGCTA | 0.116
108 | CTTCTCAA | -0.0253
109 | GTAATGAC | 0.377
